Experimental data: the supplement of paper PMC8728848
Some of the results follow.

How the values were obtained:
Assay in all cases: glycan array binding signal (z-score within array); higher = stronger binding
Details in all cases: glycan notation: IUPAC condensed, linker removed
[1] = target: GlcNAc(a1-6)Gal(b1-4)GlcNAc
Procedure, shortened: (§1)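 Arrays were curated from the Consortium for Functional Glycomics database, 3228 in total, and kept only where the protein sequence was available. Binding is expressed as a within-array Z-score. This score was averaged across arrays of the same protein sequence at different concentrations or buffers and across linkers, and negative values can be read as non-binding.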

[2] = target: GlcNAc(b1-2)Gal(b1-3)GalNAc
Procedure, shortened: as §1

[3] = target: GlcNAc(b1-2)Man(a1-3)[GlcNAc(b1-2)Man(a1-6)]Man(b1-4)GlcNAc(b1-4)GlcNAc
Procedure, shortened: as §1

[4] = target: GlcNAc(b1-2)Man(a1-3)[GlcNAc(b1-2)Man(a1-6)]Man(b1-4)GlcNAc(b1-4)[Fuc(a1-6)]GlcNAc
Procedure, shortened: as §1

[5] = target: GlcNAc(b1-2)Man(a1-3)[GlcNAc(b1-4)][GlcNAc(b1-2)Man(a1-6)]Man(b1-4)GlcNAc(b1-4)GlcNAc
Procedure, shortened: as §1

[6] = target: GlcNAc(b1-2)Man(a1-3)[GlcNAc(b1-4)][GlcNAc(b1-2)Man(a1-6)]Man(b1-4)GlcNAc(b1-4)[Fuc(a1-6)]GlcNAc
Procedure, shortened: as §1

[7] = target: GlcNAc(b1-2)[GlcNAc(b1-4)]Man(a1-3)[GlcNAc(b1-2)Man(a1-6)]Man(b1-4)GlcNAc(b1-4)GlcNAc
Procedure, shortened: as §1

[8] = target: GlcNAc(b1-2)[GlcNAc(b1-4)]Man(a1-3)[GlcNAc(b1-4)][GlcNAc(b1-2)Man(a1-6)]Man(b1-4)GlcNAc(b1-4)GlcNAc
Procedure, shortened: as §1

[9] = target: GlcNAc(b1-2)[GlcNAc(b1-4)]Man(a1-3)[GlcNAc(b1-4)][GlcNAc(b1-2)[GlcNAc(b1-6)]Man(a1-6)]Man(b1-4)GlcNAc(b1-4)GlcNAc
Procedure, shortened: as §1

[10] = target: GlcNAc(b1-2)[GlcNAc(b1-4)]Man(a1-3)[GlcNAc(b1-4)][GlcNAc(b1-2)[GlcNAc(b1-6)]Man(a1-6)]Man(b1-4)GlcNAc(b1-4)[Fuc(a1-6)]GlcNAc
Procedure, shortened: as §1

[11] = target: GlcNAc(b1-2)[GlcNAc(b1-6)]Man(a1-6)[GlcNAc(b1-2)Man(a1-3)]Man(b1-4)GlcNAc(b1-4)GlcNAc
Procedure, shortened: as §1

[12] = target: GlcNAc(b1-2)[GlcNAc(b1-6)]Man(a1-6)[GlcNAc(b1-2)Man(a1-3)]Man(b1-4)GlcNAc(b1-4)[Fuc(a1-6)]GlcNAc
Procedure, shortened: as §1

[13] = target: GlcNAc(b1-2)[GlcNAc(b1-6)]Man(a1-6)[GlcNAc(b1-4)][GlcNAc(b1-2)Man(a1-3)]Man(b1-4)GlcNAc(b1-4)GlcNAc
Procedure, shortened: as §1

GlcNAc(b1-3)Fuc = target: GlcNAc(b1-3)Fuc
Procedure, shortened: as §1

GlcNAc(b1-3)Gal = target: GlcNAc(b1-3)Gal
Procedure, shortened: as §1

[14] = target: GlcNAc(b1-3)Gal(b1-3)GalNAc
Procedure, shortened: as §1

GlcNAc(b1-3)Gal(b1-4)Glc = target: GlcNAc(b1-3)Gal(b1-4)Glc
Procedure, shortened: as §1

[15] = target: GlcNAc(b1-3)Gal(b1-4)GlcNAc
Procedure, shortened: as §1

[16] = target: GlcNAc(b1-3)Gal(b1-4)GlcNAc(b1-2)Man(a1-3)[GlcNAc(b1-3)Gal(b1-4)GlcNAc(b1-2)Man(a1-6)]Man(b1-4)GlcNAc(b1-4)GlcNAc
Procedure, shortened: as §1

[17] = target: GlcNAc(b1-3)Gal(b1-4)GlcNAc(b1-2)Man(a1-3)[GlcNAc(b1-3)Gal(b1-4)GlcNAc(b1-2)Man(a1-6)]Man(b1-4)GlcNAc(b1-4)[Fuc(a1-6)]GlcNAc
Procedure, shortened: as §1

[18] = target: GlcNAc(b1-3)Gal(b1-4)GlcNAc(b1-2)[GlcNAc(b1-3)Gal(b1-4)GlcNAc(b1-6)]Man(a1-6)[GlcNAc(b1-3)Gal(b1-4)GlcNAc(b1-2)Man(a1-3)]Man(b1-4)GlcNAc(b1-4)GlcNAc
Procedure, shortened: as §1

[19] = target: GlcNAc(b1-3)Gal(b1-4)GlcNAc(b1-3)Gal(b1-4)GlcNAc
Procedure, shortened: as §1

B1: MpAFP NterminalRI GFP (Marinomonas primoryensis) (protein)
chain: MSDNQFPFATLGNAIGFITKLDGSVTVQSIDGQERVLKLGDPIFFGETVLTGGSGSVTIAFVDGTDVVIGGDSIVEMTDEIYNTGDNEDLVADSSSEIDALQNAILAGDDPTLIQDAPAAGNTLADQQRVDVSIERNDNSAQAGFGVDTQSSLPTYGYDTDNGNGGQATEREYSAPSLSRTLNQSPLLEHHHHHH
glycan array binding signal (z-score) [1]: -0.479 | glycan array binding signal (z-score) [2]: -0.532 | glycan array binding signal (z-score) [3]: 0.47 | glycan array binding signal (z-score) [4]: -0.192 | glycan array binding signal (z-score) [5]: -0.304 | glycan array binding signal (z-score) [6]: -0.383 | glycan array binding signal (z-score) [7]: -0.39 | glycan array binding signal (z-score) [8]: -0.399 | glycan array binding signal (z-score) [9]: -0.418 | glycan array binding signal (z-score) [10]: -0.371 | glycan array binding signal (z-score) [11]: -0.196 | glycan array binding signal (z-score) [12]: -0.005 | glycan array binding signal (z-score) [13]: -0.459 | glycan array binding signal (z-score) (GlcNAc(b1-3)Fuc): -0.339 | glycan array binding signal (z-score) (GlcNAc(b1-3)Gal): -0.489 | glycan array binding signal (z-score) [14]: -0.475 | glycan array binding signal (z-score) (GlcNAc(b1-3)Gal(b1-4)Glc): -0.41 | glycan array binding signal (z-score) [15]: 0.317 | glycan array binding signal (z-score) [16]: 1.46 | glycan array binding signal (z-score) [17]: 1.26 | glycan array binding signal (z-score) [18]: 6.32 | glycan array binding signal (z-score) [19]: -0.558
